Experimental data: the supplement of paper PMC11417369
The list shows a part of the results.

Tested on: PfHDP1 homeodomain (GST-tagged)
Experiment: gcPBM binding intensity (ln(normalized median fluorescence intensity)); higher = stronger DNA binding
In short: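 Probes on an Agilent 4 × 180k array were primer-extended, double-stranded and 36 bp long, taken from intergenic genomic regions, with negative controls added. GST-tagged P. falciparum DNA-binding domains from E. coli, about 25 μg on average, were applied to the array for 1 h in 1× PBS containing 1% milk, 0.2 mg/ml BSA, 0.5% salmon testes DNA and 0.03% Triton X-100. Binding intensity, obtained after Alexa488 anti-GST antibody detection and a 488 nm scan, is the highest Masliner-normalised natural-log median intensity across replicate spots of either probe orientation.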

Point of comparison: “AAAAAAAAAAAAAAAACACACATATATATATAATAT [CACACA_site1159]”, “gcPBM binding intensity (ln)” value 6.52. Against it:
- TTTTTAATATATTAGGTGCACAATAATACACTTTAT — higher, 10.3
- TATATATATATTTATACACACACATATATTTATATA [CACACA_site8054] — higher, 8.22
- TATACACTTATTGGTGGTACAATATATAAATATATG [XGTACX_site3289] — lower, 6.12
- CAAAAGTAAGCACGCACACACAACATGAAATAAAAT [CACACA_site165] — higher, 7.12
- TTTTGATCTGAAGGAACCTAAAAAGGGAAGAGAAAA [CACACA_negctrl_site1656] — higher, 6.57
- AAAAAAAAATATACATATATATATATATATATATAT [CACACA_negctrl_site1763] — higher, 9.47
- AATAAACATAAATAAAAATTATAAAATATATATATG [CACACA_negctrl_site1709] — lower, 6.37
- ATAATTCCAAGAATTTCATATATCTGAATTTTAGGT [GTGCAC_negctrl_site283] — lower, 5.98
- ATATATATATATATTACACACTTTTTCTTTTTTTTT [CACACA_site2780] — higher, 9.01
- TTTACATTTCAGTAGACACACAAAAAATAATACTAA [CACACA_site512] — the same, 6.52
- CAAGTAGATATTATACGTACATATATATATATATAT [XGTACX_site8349] — higher, 9.31
- ATATATATAAATAATTGTACATAATAATAAAATATA [XGTACX_site4839] — higher, 6.63
- ATATTTTGTAACTATACACACATATTTATATTATAA [CACACA_site7433] — higher, 6.61
- ATATAAAATATTACGTGTACACATAAATAAAAATAA [XGTACX_site3746] — higher, 7.58
- TAAAAAATATACATTCGTACATATATATTATATATA [XGTACX_site7918] — lower, 6.31
- TTTTATACATATTTTACACACTAAAATATACCTATA [CACACA_site6286] — higher, 6.94
- GAAAAAAAAGCTTGCACACGTATTTGCTTTATGTAT [CACACA_site4931] — higher, 8.22
- TACATATATATATTATGTACATAAGGTTTGAGTTCA [XGTACX_site2726] — higher, 6.73
- TTTTTGGTATTATTGTGTACTTATAAATAATATAAT [XGTACX_site4019] — lower, 6.47
- TATAAATATTTATGTACACACATATACATGTTGAAT [CACACA_site5684] — higher, 6.73
- AAAAAAAAAAAAAAAAGTACAAAAAGAAGAAAAAAA [XGTACX_site6521] — lower, 6.21
- TTTTTTTTTTTTACGTGTACATAAATGTTAAGTAAT [XGTACX_site3901] — higher, 6.59
- AAAATATAGGTATGCACACACATATACTTCTGTGCA [CACACA_site1409] — higher, 10
- TTTTTTTTTTTTTTTTTTTTTTTATGTTCTTAAAAA [GTGCAC_negctrl_site62] — lower, 6.12
- TCATACATGTATATGTGTACATATAATGTATATTCC [XGTACX_site6082] — lower, 6.41
- TTATATTCTTTTCTCTTTCTACTTTTTTTTTTTTTT [XGTACX_negctrl_site317] — lower, 6.07
- AAGAAAAACTTATATATATATATATATATATATATA [TGCATGCA_negctrl_site466] — higher, 9.6
- ATATGATCATTTTATCATTTTGCTTTTTCTTTTTTT [CACACA_negctrl_site1325] — lower, 6.44
- AATTTTGGAACGTGCACACATATGTAATATATATAT [CACACA_site3067] — higher, 9.89
- TTTTTTTAATGATATTGTACATTAATAAAAAATATG [XGTACX_site1719] — lower, 6.3
- TCTTTTTCAAGATGACGTACTTAGATTAATATAAAA [XGTACX_site3931] — lower, 6.25
- ATTTGATATATAATAATACACACTTACATAATTAAT [CACACA_site290] — higher, 6.8
- TAAATACAGAGGAAAATACACACGTATATATATAAA [CACACA_site3410] — lower, 6.36
- AAAAAAAATTTAATTGCACACAGGAAAATATAATTT [CACACA_site3810] — higher, 9.42
- TATAAATATACAAACACACATACAAACATATATATA [CACACA_site1120] — higher, 6.97
- TTAATACCCAGACACACACACACAAAATAAAATACA [CACACA_site7968] — higher, 6.89
- TAAATATATAATAAATGTACATATTAATATTATGGT [XGTACX_site1498] — higher, 6.81
- CAATGTTAACATATTACACACATATGTATTTATAAC [CACACA_site7314] — higher, 6.94
- TACACAAACGTTATACGTACACAGGTTTTTCTTTTA [XGTACX_site5427] — lower, 6.33
- ATATTGAAATGTTAATAGAAATATATGGTTAAATTG [XGTACX_negctrl_site212] — lower, 6.25
- ATAATAAGAAAAAAAAAAAAAAAAAAAAAAAAAAAA [TGCATGCA_negctrl_site377] — lower, 6.2
- ATGTATATAAATAGGTGTACATATAAGGTGTTAAGC [XGTACX_site5465] — higher, 7.8
- ACATTATAATATTATTGTACTATATATATAATATAT [XGTACX_site2291] — higher, 6.64
- ATATAATAACATAACACACACATGTATTTATAGGTG [CACACA_site359] — higher, 6.57
- GATAATCAGAATGGGGTGCAAAGAAAAAAAAAAAAA — higher, 7.46
- TTATATTTATATTTATGTACATATTTTGTGTGAAAA [XGTACX_site2367] — higher, 6.69
- TCTATTTATATGTATTGTACAATATAGATGTGTATT [XGTACX_site5646] — higher, 7.2
- CCTAAATAATATCTATCACACACGCATATATACATA [CACACA_site8838] — lower, 6.44
- TTCTATATATAATATTGTACTTAATTATTTTATTTT [XGTACX_site2701] — lower, 6.36
- ATATATATGCATTCAAGTACAAAAATATATGTTAAA [XGTACX_site910] — higher, 6.7
- TAGCTGTTCAAAAAATGTACATATATAATATATATA [XGTACX_site5842] — higher, 6.95
- AGTGTATATAGAAACATACACACATATTAATTTTAC [CACACA_site3127] — lower, 6.33
- AAATTAAAAATAATTACACACATAGAAAAATTATAT [CACACA_site2275] — lower, 6.48
- GTAATACACAGACACACACACATACACATATTTATA [CACACA_site7313] — higher, 7.54
- TATACAGACAGACACACACACATATATATATATATA [CACACA_site1734] — higher, 9.27
- TATATATAAGAAAAAAGTACAGATATATATATATTC [XGTACX_site4788] — higher, 6.65
- TGTTATATTATAACTACACACGTATTATGTTATATC [CACACA_site839] — lower, 6.5
- AAATTTTCACTTCAAAAACACACGTATTTTTTTCCT [CACACA_site3813] — higher, 6.87
- TTTTAAGAAAAAAAATGTACACATGAAAATAGTGAA [XGTACX_site5898] — lower, 6.51
- TTTTTTATCTAATATTTTATAATTTTCATAAATTTG [GTGCAC_negctrl_site534] — lower, 6.21
- AAAAAAAAAAAAAAAAGTACATGCCATATATTTTCA [XGTACX_site4580] — lower, 6.51
- GCTAGTTCATAAAATTGTACAAAAAAAAAAAAAAAA [XGTACX_site2223] — lower, 6.23
- AATAGAAACATTTTACATGTATATATAATTTTTTTT [XGTACX_negctrl_site190] — lower, 5.95
- AAATAATCTATACACAACGTATAAGAATAATATATG [TGCATGCA_negctrl_site422] — lower, 6.27
- TAAATAATGTTAAACACACATACCGATATATAATTA [CACACA_site2711] — lower, 6.44
- TGTACAATATAAGGAGCACACAAAAATGGATAAATA [CACACA_site8216] — higher, 7.41
- ACCTCTCATATGTTATAAACAAAATGAAAATTTCAT [XGTACX_negctrl_site303] — higher, 7.05
- ATTTTATTTTATTAAGTGCAAAAAAAAAAAAAGAAA — higher, 9.66
- ATATGGCATAAAACATGTACATGTTCATAAATATAT [XGTACX_site1924] — higher, 6.8
- AATTGTTAATGGTACGAACACACATATAAAGATGCA [CACACA_site2043] — higher, 6.76
- ATTATATCTATAATATGTACATATTATAATATATAT [XGTACX_site3211] — higher, 6.64
- AGAATTAAAATAATACGTACACACATGTATAATACA [XGTACX_site1878] — higher, 6.7
- GTGTGATGGTCCAATATACACACTTAAAAAAAAAAA [CACACA_site2426] — lower, 6.26
- TACTGTTATAAATGTGGTACTAATATTATACATATA [XGTACX_site5116] — lower, 6.45
- TTAAATTATTAGAGAGTGCATTATATATATTATACA [GTGCAC_site9711] — higher, 8.84
- ATTTTTTTACAAAAATGTACACATGAAATATGTAAT [XGTACX_site1372] — lower, 6.46
- TGACAACATAGAGGGGCACACACATATATACATAAA [CACACA_site8550] — higher, 6.64
- TAAAAGTATATATATACACACATAAATATATCTGTA [CACACA_site4537] — lower, 6.38
- TATTATTTTAGAATGCGTACTTATAAAATATTTTAT [XGTACX_site867] — lower, 6.42
- AATGGTCTTTTCAACACACGTACATAAAAATATTAT [CACACA_site2571] — higher, 6.74
- GTGGAATAATATATATGTACATATTTAAAATATTTA [XGTACX_site3499] — lower, 6.4
- ATATATATATATATATGTACATATGTTAGGATCAAA [XGTACX_site8626] — higher, 9.41
- ATGACATATAAATATACACACATACGTAAGTATATT [CACACA_site5058] — lower, 6.31
- TTATATTAATAATAAAGTACAAAAAATCATATATAA [XGTACX_site799] — higher, 6.67
- TTATTGAACTTTTATAAAACCTGTATTATTATCTCT [CACACA_negctrl_site767] — higher, 6.62
- TATTTCTTATTACATACACACATATACATATATGAC [CACACA_site3201] — higher, 6.97
- TCCAGGCTACACTCTAGTACTCGTAGGGTTATGAGA [XGTACX_site4945] — lower, 6.16
